# Measurements: the RNAGym collection of RNA variant scans (doi:10.7554/elife.90254)
# Read counts are not given, so values of variants with three or more changes are uncertain.
# B1: LINE1-mini (parent)
# chain: GGCAGAGCUCAACACAGCGUGGCAAAGUGGCUGUGGCUAGACUGCC
# Variants of: B1
# Test: self-cleavage, relative activity (ratio to wild type); higher = more cleavage; in vitro, sequencing; the parent is a self-cleaving ribozyme
row,Variant,self-cleavage
1,GGGAGAGCUCAACGCAGCGUAGCAAAGUGGCUGUGGCUAGACUGCC [C3G A14G G21A],0.47
2,GGCAGACCUCAACACAGCGUGGAAAAGUGACUGUGGCUAGACUGCC [G7C C23A G30A],0.32
3,GGCAGAGCUCAACACUGCGUGGCAAAGUGGCUGUGGCAAGACUGUC [A16U U38A C45U],0.08
4,GGCAGAGCUCAACACAGCGUGGAAAAGUGGCUGUGACUAAACUGCC [C23A G36A G40A],0.74
5,GGGAGGGAUCAACACAGCGUGGCAAAGUGGCUUUGGUUAGACUGCU [C3G A6G C8A G33U C37U C46U],0.09
6,GGCAGUGCUGAACACAGCGUGGCAAAAUGGCUGUGGCUAGACUGCC [A6U C10G G27A],0.05
7,GGCAGAGCUCAACACGGCGUCGCAAAGUGGCUGUGGCUAGACUGUC [A16G G21C C45U],0.22
8,GGCAGAGAUCAACCCAGCGUGGCAAAGUCGCCGUCGCUAGACUGCC [C8A A14C G29C U32C G35C],0.07
9,GGCAGACCUCAACACAGCGCGGCAAAGUGGCUGUGGCUAGCCUGCC [G7C U20C A41C],0.18
10,UGCUCAGCUCAACACAGCGUGGGAAAGUGGCUCUGGCUAGACUGCC [G1U A4U G5C C23G G33C],0.06
11,GGCAUAGCUCAACACAGCGCGGCAAAGUGGCUGUGGCUAGACUGUC [G5U U20C C45U],0.02
12,GGCAGAGCUCAACACAGCCUGGUAAAGUGGCUGUUGCUAGACUGCC [G19C C23U G35U],0.11
13,GGCAAAGCUCAUCACAGCGUGGCAAAUUGGCUGUUGCUAGACUGCC [G5A A12U G27U G35U],0.04
14,GUCGGAGCUCAACAGAGCGUUGCAAAGUGGCUGUAGAUAAACUGCC [G2U A4G C15G G21U G35A C37A G40A],0.03
15,GGCAAAGCUCAACACAGCGUGGCAAAGUGGCUGUGGUUGGACUGCC [G5A C37U A39G],0.04
16,GGCAGAGCUCAACACAGCCUUGCAAAGUGGCGGUGGCUGGACUGCC [G19C G21U U32G A39G],0.03
17,GGCAGAACUCAACACAGCGUGGCAAAGUGGAUGUCGUUAGACUGCC [G7A C31A G35C C37U],0.01
18,GGCAGAGCUCAACUCAGCGUGGCAAAGUGGCUGUUUCUAGACUGCC [A14U G35U G36U],0.13
19,GGCAGAGCUCAACCCCGCCUGGCAAAGUGGCCGUGGCUAGACUGCC [A14C A16C G19C U32C],0.15

row,Variant,self-cleavage
1,GGCAGCGCACAACACAGCGCGGCAAAGUGGCGGUGGCUAGACUGCC [A6C U9A U20C U32G],0.04
2,GGAAGAGAUCAACAAAGGGUGGCAAAGUAGAUGAGGCUGGACUGGC [C3A C8A C15A C18G G29A C31A U34A A39G C45G],0.15
3,GGCAGGGCUCAACACAGCGUGGCAAAGUAGAUGUGGCUAGACUGCC [A6G G29A C31A],0.04
4,GUCAGAGCUCAGCACAGCGUGGCAACGUGGCUGUGGCUAGACUACC [G2U A12G A26C G44A],0
5,GGCAGAAUGCAACACAGCGUGGCAAAGUGGUCAUGGCUAGACUCGC [G7A C8U U9G C31U U32C G33A G44C C45G],0.02
6,GGCAGAGCUCGACAAAGCGUGGCAGUGUGGCUGUGGCUAGACUGCC [A11G C15A A25G A26U],0.04
7,GGCAGAGCUCAACACAGCGUAGCUAAGUGGCUGUGGUUAGACUGCC [G21A A24U C37U],0.03
8,GGGAGAGCUCAACACAGCAUGGCAAAGAGGCUGUGGCUAGACUGCC [C3G G19A U28A],0.17
9,GGCAGACCUCAACAAAGCGUGGCAAAGUGCCUGUGGCUAGACUGCC [G7C C15A G30C],0.05
10,GGCAGAGCUCAACACAGCGUGGCAAAAGGGAUGUGGCUAGACUGCA [G27A U28G C31A C46A],0.11
11,GGCACAGCUCAACAGAGCGUGGCAAAGUGGGUAUGGCUAGACUGCC [G5C C15G C31G G33A],0.02
12,GGCAGUGCUCAACACAGCGUGGCAAAGUGGCUGAGGCUAGAUUGCC [A6U U34A C42U],0.37
13,GGCAGAGCUCGACCCAGCGUGGCAAAGUGGCUGUGGCUAGACUGCG [A11G A14C C46G],0.12
14,GGCAGAGCUCAACAAAGCGUGGCAAAGUGGGUCUGGCUAGACUGCC [C15A C31G G33C],0.01
15,GGCAGAGCUCGACACAGCGUGGCAAAGUGGUUGUAUCUAGACCGAC [A11G C31U G35A G36U U43C C45A],0.02
16,GGCAGAGCUCAACACACCGUGGCACAGUGGCUGUGACUAGACUGCC [G17C A25C G36A],0.1
17,GGCUGAGCUCAACACUGCGUGGCAAAGUGGCUCUGGCUAGCCUGCC [A4U A16U G33C A41C],0.02
18,GGCAGAGCUCAACACAGCGUGGAAAAGUAGCUGUGGCUAGACCGCC [C23A G29A U43C],0.13
19,GGCAGAUCUCAACACAACGGGGCAAAGAGGCUGUGGCUAGACUGCC [G7U G17A U20G U28A],0.11

row,Variant,self-cleavage
1,GGCCGAGCUCCACACAGGGUAGCAAAGUGGCUGUGGCUAGACUGCU [A4C A11C C18G G21A C46U],0.02
2,GGCAGAGGUAAACACAGCGUGGCAAAGUGGCUGUGGCGAGACUGCC [C8G C10A U38G],0.01
3,GGCAGAGCUCAACACAGCCUGGCAAAGAGGCGGUGGCUAGACUGCC [G19C U28A U32G],0.15
4,UGAAGAGAUCAACACAGCGUAGAAAAGUGGCUGUGGCUAGACUGCC [G1U C3A C8A G21A C23A],0.51
5,GGCAGAGCUCAACACAGCGUGGCGAAGUGGCUGUUGCGAUACUGCC [A24G G35U U38G G40U],0.04
6,GGCAGAGCGUAACACAGCGUGGCAAAGCCGCUGUGGCUAGACCGCC [U9G C10U U28C G29C U43C],0.01
7,GGCAGAGCUCAACACAGCGUGGCAAAGUGGCUAUGGCUCGACUCCC [G33A A39C G44C],0.02
8,GGCUCAGCUAAACACACCAUGGUGAAGUGGCUGUGGCUAGAUUGCC [A4U G5C C10A G17C G19A C23U A24G C42U],0.01
9,GGCAGAUAUCAACACAGCGUGGCAAAGUGGCUGUGGCUAGACCGCC [G7U C8A U43C],0.39
10,GGCAGAGCUCCACACAGCGUGGGAAAGUGGCUCUAGCUAGACUUCC [A11C C23G G33C G35A G44U],0.01
11,GGCAGAGCUCAUCCCAGAGUGGCAAAGUGGCUUUGGCUAGACUGCC [A12U A14C C18A G33U],0.12
12,GGGAGAGCUCAACACAGCGUGGCAAAAUGGCUGUGGCUAGACUGCA [C3G G27A C46A],0.11
13,GGCAGAGCUUAACACAGCGUGGCAAAGCGGCUGUGGCAAUACUGCC [C10U U28C U38A G40U],0.06
14,GGCAGAGCUCAACACAGCGUGGCAAAGUGGGUGUACAUAGACUGCC [C31G G35A G36C C37A],0.14
15,GGCAGGGCUCACCACAGCGUGGCAAAGUGGCUGUGGCUAGCCUGCC [A6G A12C A41C],0.03
16,GGCACAGCUCAACACAGCGUGGCAAAGUGGCUGUGGUUAGACUGAC [G5C C37U C45A],0.04
17,GGCAGAGCCCAACUCAGCGUGGCAAAGUGGCUCUGGGUAAACUGCC [U9C A14U G33C C37G G40A],0.04
18,GGAAGAGCUCAACACAGCGUGUCAAAGUGCCUGUGGCUAGACUGCC [C3A G22U G30C],0.62
